Laboratory results: PubChem BioAssay AID485294 (National Center for Advancing Translational Sciences (NCATS), 2010)
Out of some 370,000 compounds screened, about 150 (0.041%) were called active. Inconclusive means that the source gave no clear call. Such entries were picked first, then a sample of the others. The call rests on the fitted dose curve; in most records, active means well fitted inhibition curve with a large enough effect; inconclusive means small, poorly fitted or top-dose-only effect; inactive means flat fitted curve, though single readings scatter. Potencies of inconclusive entries are left out as doubtful fits.

molecular target: Beta-lactamase (Escherichia coli (strain K12)) (UniProt P00811); test: qHTS Inhibitors of AmpC Beta-Lactamase (assay with detergent); conditions: AmpC hydrolysis of nitrocefin, absorbance 480 nm, 0.01% Triton; activity change, negative = inhibition: at 114 µM (top of the series); further: nearly all actives have a fitted effect of over 25% in size;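 on activity change, negative = inhibition: 0% = no-compound wells and -100% = no-enzyme wells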
Chain of UniProt P00811 (P00811 whole entry, looked up): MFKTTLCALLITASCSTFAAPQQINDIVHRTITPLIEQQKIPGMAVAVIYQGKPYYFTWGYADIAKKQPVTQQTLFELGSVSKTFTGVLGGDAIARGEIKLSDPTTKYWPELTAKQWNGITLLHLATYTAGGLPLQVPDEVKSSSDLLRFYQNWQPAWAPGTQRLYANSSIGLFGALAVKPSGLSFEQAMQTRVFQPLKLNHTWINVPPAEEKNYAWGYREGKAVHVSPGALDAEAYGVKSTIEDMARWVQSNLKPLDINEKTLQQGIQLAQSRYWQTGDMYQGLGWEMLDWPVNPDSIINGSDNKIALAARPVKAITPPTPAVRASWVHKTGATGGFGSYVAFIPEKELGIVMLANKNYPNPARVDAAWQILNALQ
Summary of the method: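 20 mM phosphate pH 7.0 + 0.01% (detergent screen) or 0.0001% Triton X-100; 5.3 nM AmpC reagent; cpd preinc 15 min RT; nitrocefin (800 uM stock) to start; A480 q20 s × 4 min; Activity was normalised to no-enzyme and no-compound control wells.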
Potency means the concentration at half of the fitted maximal effect; tags describe the fitted curve by direction and shape.

Structure (SMILES) | activity change, negative = inhibition | Potency
CC(C)C(NC(=O)c1ccc([N+](=O)[O-])cc1Cl)C(=O)N1CCCC1 (configuration not stated) | inactive: -8.04% | 
CC(N)Cc1c[nH]c2c1ccc1ccccc12 (configuration not stated) |  | inconclusive [inhibitor, full curve, poor fit]
COc1ccc(-c2coc3cc(OC)cc(O)c3c2=O)cc1 | inactive: -6.95% | 
Cc1ccc(-n2c(=S)[nH]c3c(oc4ccccc43)c2=O)cc1C | inactive: -1.97% | 
COc1ccc(CNC(=O)CSc2nnc(C)n2-c2ccc(F)cc2)cc1 |  | inconclusive [inhibitor, partial curve]
O=C(NC(C(=O)NCCN1CCOCC1)C12CC3CC(CC(C3)C1)C2)C1CCCCC1 (configuration not stated) |  | inconclusive [inhibitor, full curve, poor fit]
Cc1ccc(/C=C/C(=O)N2CC(C)CC(C)C2)o1 (configuration not stated) | inactive: -9.83% | 
CN1CCN(C(=S)Nc2ccccc2Cl)CC1 |  | inconclusive [inhibitor, single point]
CCc1nnc(NC(=O)c2nc(SCc3ccc(F)cc3)ncc2Cl)s1 | inactive: 15.1% | 
Cc1nn(-c2ccccc2)c2nc(-c3ccccc3)cc(C(=O)N3CCOCC3)c12 |  | inconclusive [inhibitor, partial curve, poor fit]
O=C(NCCNc1ccc2ccccc2c1)c1cccn2c(=O)c3sccc3nc12 |  | inconclusive [inhibitor, full curve, poor fit]
NNc1nc2c(-c3ccc(Cl)cc3)nnn2c2ccccc12 |  | inconclusive [inhibitor, full curve, poor fit]
CCCN1CCC(N2CCN(c3ccc([N+](=O)[O-])cc3)CC2)CC1 |  | inconclusive [inhibitor, partial curve]
COC(=O)c1cccc(C(=O)N2CCC(CCC(=O)NCc3ccc(F)cc3)CC2)c1 |  | inconclusive [inhibitor, full curve]
Cc1ccc(C)n1NC(=O)c1ccco1 |  | inconclusive [inhibitor, partial curve, poor fit]
O=C(Nc1cc(C(F)(F)F)ccc1Cl)C(=O)N1CCCCC1 |  | inconclusive [inhibitor, full curve, poor fit]
O=C(COC(=O)Cn1cnc2ccccc2c1=O)Nc1cc(Cl)ccc1[N+](=O)[O-] |  | inconclusive [inhibitor, partial curve]
O=C(NCCc1ccccc1)C1(c2ccccc2)CCCC1 |  | inconclusive [inhibitor, full curve, poor fit]
Cc1ccc(S(=O)(=O)N(C)c2ccc(OCC(=O)Nc3nc4ccccc4s3)cc2)cc1 | inactive: -6.42% | 
O=S(=O)(NC(=NCc1ccccc1)c1ccccc1)c1ccc(Br)cc1 | inactive: -0.354% | 
CCC(C)(C)n1nnnc1C(c1ccc(C)cc1)N1CCCC1 (configuration not stated) |  | inconclusive [inhibitor, full curve, poor fit]

Structure (SMILES) | activity change, negative = inhibition | Potency
Cn1nc(C(=O)Nc2ccc(S(=O)(=O)N3CCCCC3)cc2)ccc1=O |  | inconclusive [inhibitor, single point]
Cc1cccc(C2CC(c3ccccc3)Nc3ncnn32)c1 (configuration not stated) |  | inconclusive [inhibitor, full curve, poor fit]
CCc1ccc(N2CC(C(=O)OCc3csc(CC(=O)Nc4ccccc4C)n3)CC2=O)cc1 (configuration not stated) |  | inconclusive [inhibitor, full curve, poor fit]
CC1CN(C(=O)Cn2cnc3c2c(=O)n(C)c(=O)n3C)CC(C)O1 (configuration not stated) |  | inconclusive [inhibitor, full curve, poor fit]
O=C(O)CCCC(=O)Nc1ccccc1SCCS(=O)(=O)c1ccc(Cl)cc1 | inactive: -19.3% | 
CC(=O)Nc1ccc(S(=O)(=O)NC2=C(N3CCN(c4ccc(F)cc4)CC3)C(=O)c3ccccc3C2=O)cc1 | inactive: -6.19% | 
CCOP(=O)(c1ccc(N(C)C)cc1)C(O)c1cc(OC)c(OC)c(OC)c1 (configuration not stated) |  | inconclusive [inhibitor, full curve, poor fit]
O=C(CN1C(=O)c2ccccc2S1(=O)=O)c1ccc2c(c1)OCCCO2 | inactive: -2.77% | 
O=C1C2ON(c3ccccc3)C(c3cccnc3)C2C(=O)N1c1ccccc1 (configuration not stated) |  | inconclusive [inhibitor, full curve]
OC(C#CCN1CCCCC1)c1ccccc1 (configuration not stated) |  | inconclusive [inhibitor, partial curve, poor fit]
O=C(/C=C/c1ccccc1)Nc1ccc(N2CCCCC2)cc1 |  | inconclusive [inhibitor, partial curve, poor fit]
COc1cc(CN(C(=O)c2ccc(C)cc2)c2ccccn2)cc(OC)c1OC | inactive: 13.9% | 
COc1ccc2nc(NC(=O)CSc3nnc4n3C(C)(C)Cc3ccccc3-4)sc2c1 |  | inconclusive [inhibitor, full curve]
CC(C)(C)C(=O)Nc1ccccc1C(=O)Nc1cccnc1 |  | inconclusive [inhibitor, partial curve]
COc1ccc(OCC(O)CNC(=O)c2c(-c3ccccc3)noc2C)cc1 (configuration not stated) | inactive: 2.97% | 
COC(=O)c1sc(NC(=O)c2ccncc2)nc1C |  | inconclusive [inhibitor, full curve, poor fit]
CC1=NN(C(=O)c2ccc(Cn3nc(C)c([N+](=O)[O-])c3C)cc2)C(O)(C(F)(F)F)C1 (configuration not stated) |  | inconclusive [inhibitor, partial curve]
Cc1ccc(N=Cc2c(O)cc(C)oc2=O)c(C)c1 |  | inconclusive [inhibitor, full curve, poor fit]
CC(C)CN(C(=O)COC(=O)C(C)N1C(=O)c2ccccc2C1=O)c1c(N)n(Cc2ccccc2)c(=O)[nH]c1=O (configuration not stated) |  | inconclusive [inhibitor, full curve, poor fit]
CN(C)S(=O)(=O)n1cc(/C=C(\NC(=O)c2ccccc2Cl)C(=O)N2CCCC2)c2ccccc21 |  | inconclusive [inhibitor, full curve, poor fit]
Cc1nc2ccccc2nc1SCC(=O)c1ccccc1 |  | inconclusive [inhibitor, single point]
